Whole data set: some 33,000 sequences, median “E-score (dimensionless, -0.5 to 0.5)” near -0.058, cut for the highest 2% near 0.35. This is one part of the list.
tested on: MvaT; assay: PBM 8-mer E-score (mean of HK and ME arrays) (E-score (dimensionless, -0.5 to 0.5)); higher = stronger relative binding preference; most listed sequences are background and not binding sites
Method in brief: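 Full-length P. aeruginosa MvaT carrying an N-terminal glutathione S-transferase tag was tested by protein binding microarray following a previously described protocol. Two universal double-stranded 60-mer arrays, ME and HK, were used, each with a constant 25-mer primer region and a variable 35-mer region covering all 8-mers. The rank-based E-score is the mean of the two arrays, parsed with a custom script. Its range runs from -0.5 to 0.5 for each 8-mer.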

Sequence | PBM 8-mer E-score
ATGATAAC | 0.178
GGCTTCCA | -0.217
ACAACGTC | -0.207
ATGCAACG | 0.0758
AGGTATGA | 0.12
CAACCATA | 0.0988
CTCAGTCC | -0.348
CGCGTGCA | -0.0926
CGAATCAA | 0.0229
CAGCTATA | 0.205
GCGTAAGC | -0.291
CCGTGTAG | -0.151
ATGCATAG | -0.0132
CGCTAAGA | -0.0481
GCCTCTAC | -0.193
GAAGCGCA | -0.0875
AGCCCTTA | -0.174
GTCGTAAC | -0.0622
ACCGATAA | 0.168
AGGGTCAA | -0.196
CCAGCAGC | -0.187
ATAAGTTA | 0.441

Sequence | PBM 8-mer E-score
GGTAATAC | 0.249
AGCTCTAC | -0.218
ACTAGCAG | -0.0293
CTGTAGTC | 0.0136
CCGAGAAA | 0.014
ATGCTGCC | -0.046
CCTTGCCA | -0.127
ATACTAAG | 0.272
GAATTCCC | 0.0328
AGTGTCGG | -0.00106
CCTGTACG | -0.125
CAATCGGA | -0.0769
CACGTCGG | -0.201
CACGCCAA | 0.0357
ACGTCAGT | -0.127
GACGTATA | 0.155
AGTGGTTC | -0.0509
TTACCAAA | 0.233
GATGAGGC | -0.316
ATAAAAGC | 0.2
CCGATCGC | -0.21
AGAGAATC | -0.11

Sequence | PBM 8-mer E-score
CGAACACA | -0.0305
TCATCGAA | -0.15
AGTATGAT | 0.247
GGGAGATA | -0.15
GGATTGCA | 0.0859
AAAGGTGA | -0.0481
ACGTTTTG | 0.112
CGCGGTTA | 0.0149
GGCGAGCA | -0.176
GTCTAAAA | 0.109
CCGGTGAG | -0.252
GCTAATAA | 0.338
AGAAAAGG | -0.129
GATGATAC | -0.0969
TACATACA | 0.301
ATAAACGG | 0.217
AATCGTGA | -0.12
CGGCGACG | -0.124
CGCGTTAA | 0.183
CCTATCCG | -0.119
GCCCGCGC | -0.262
AATCGTCA | -0.12

Sequence | PBM 8-mer E-score
CAGGCAGG | -0.314
ACCGTAGG | -0.125
CACCCCTG | -0.268
AATTCATC | 0.115
GTTCACCA | 0.0831
GCGAAGAC | -0.222
CGTTCTTC | -0.142
GAAAACCC | -0.0978
AGCCCCAG | -0.25
AATGAGCA | -0.108
CCCCACCG | -0.286
GATATTGC | 0.14
CGGGCATC | -0.216
GATAATAA | 0.404
CGGAAGTA | 0.131
CCGTAGAG | -0.205
CGCTAAAC | -0.00507
CAGTAAGC | 0.0448
ATGCCCAG | -0.185
GCCGAAGC | -0.257

— the supplement of paper PMC4466236
